# Source: PubChem BioAssay AID1347120 (National Center for Advancing Translational Sciences (NCATS), 2019)
# The campaign covered roughly 390,000 compounds. About 930 (0.24%) were called active. The shares of active, inactive and inconclusive entries below differ from those in the screen. The call rests on the fitted dose curve; in most records, active means well fitted activation curve with a large enough effect; inconclusive means small, poorly fitted or top-dose-only effect; inactive means no such curve, though single readings can be large or run the other way. Where the call is inconclusive, the potency comes from a doubtful curve fit.
# Test: qHTS for Suppressors of FUS Proteinopathy: Primary screen using FUS-linked yeast assay; further: nearly all actives have a fitted effect of over 55% in size;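 on growth rescue (activation): plate controls were DMSO vehicle for no effect and reference control for full effect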
# Details: S. cerevisiae FUS-expressing, OD600, 24 h; Potency: growth rescue; growth rescue (activation): at 76.6 µM (top of the series)
# Procedure, shortened: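 Yeast expressing FUS under galactose induction, OD 0.005 in 2% galactose medium; compounds in a dilution series, 24 h at 30C. Growth rescue by absorbance at 600 nm; CP55940 positive control, DMSO negative.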
# Potency means the concentration at half of the fitted maximal effect; tags describe the fitted curve by direction and shape.
SMILES,Potency,growth rescue (activation)
COC(=O)C1=NN(c2cccc3ccccc23)C2C(=O)N(c3ccccc3OC)C(=O)C12 (stereo not drawn),"inconclusive: 12.6 µM [activator, partial curve, poor fit]",
COc1ccc(CCN(C)Cc2ccc(C(=O)Nc3ccccc3)cc2)cc1OC,inactive,
CCN(CC)CCCNS(=O)(=O)c1ccc(OC)cc1,,inconclusive: 63% [activator]
O=C(NNC(=O)c1cc(-c2ccccc2)nn1-c1ccccc1)c1ccccc1,"inconclusive: 17.8 µM [activator, partial curve]",
COC(=O)C1=C(N)OC2=C(C(=O)CCC2)C1c1cccs1 (stereo not drawn),inactive,
Cn1ccc2c(-c3cccc(C=O)c3)cc3c(c21)C1CCC3C1 (stereo not drawn),"inconclusive: 50.1 µM [activator, single point]",
CCCCCCCOc1ccc(C2CC(=O)N(C)C2=O)cc1 (stereo not drawn),"inconclusive: 50.1 µM [activator, single point]",
Cn1nc(C(=O)NCc2cccc(Cl)c2)c2c1-c1ccccc1SC2,inactive,
COCCNc1ncnc2c1cnn2-c1cc(Cl)ccc1C,inactive,
CCC(=O)N1c2ccccc2CC1C(=O)NCCc1ccccc1Cl (stereo not drawn),inactive,
COC(=O)[C@]12C[C@H](CC(=O)N3CCN(C(=O)c4ccco4)CC3)C(=O)N(Cc3ccc(Cl)cc3Cl)C1=C[C@H](C(C)(C)C)O[C@@H]2C,active: 11.2 µM,
Cc1nc2ccc(NC(=O)c3cccs3)cc2c(=O)n1Cc1ccc(Cl)cc1,"inconclusive: 15.8 µM [activator, partial curve, poor fit]",
O=C(Nc1nc(Cc2ccccc2)c(-c2ccccc2)n1Cc1ccccc1)c1ccccc1,"inconclusive: 31.6 µM [activator, partial curve, poor fit]",
CCC1=Nc2cc(C(=O)NCc3ccccc3OC)ccc2Sc2ccc(Cl)cc21,"inconclusive: 3.55 µM [activator, full curve]",
C=CCN1[C@@H](CC(C)C)COc2cccc(F)c2S1(=O)=O,inactive,
O=c1ccc(NS(=O)(=O)c2ccccc2)cn1Cc1ccc(Cl)c(Cl)c1,"inconclusive: 50.1 µM [activator, single point]",
CCCCn1c(N)c(N(Cc2ccccc2OC)C(=O)c2ccc([N+](=O)[O-])s2)c(=O)[nH]c1=O,"inconclusive: 31.6 µM [activator, partial curve, poor fit]",
CCN1CCN(C(=O)C2CCN(C(=O)Nc3ccccc3)CC2)CC1,"inconclusive: 28.2 µM [activator, single point]",
CCOC(=O)[C@H](Cc1ccccc1)NC(=O)[C@H]1C[C@@]2(N3CCCCC3)c3ccccc3N(C(=O)OC(C)(C)C)[C@H]2N1C(=O)OC(C)(C)C,"inconclusive: 11.2 µM [activator, partial curve]",
Cc1cc2cc(C(=O)N3CCc4c([nH]c5ccccc45)C3c3ccccn3)ccc2o1 (stereo not drawn),"inconclusive: 31.6 µM [activator, single point]",
COCOCCn1cc(CN2CCS(=O)(=O)N(Cc3ccc(-c4ccc(C)cc4)cc3)C(C(C)C)C2=O)nn1 (stereo not drawn),"inconclusive: 31.6 µM [activator, single point]",

SMILES,Potency,growth rescue (activation)
Cc1cccc(N2CCN(CCNC(=O)c3cc4c(s3)CS(=O)(=O)C4)CC2)c1C,"inconclusive: 6.31 µM [activator, full curve, poor fit]",
O=C(Cc1ccccc1F)Nc1nc(-c2cccs2)cs1,inactive,
CS(=O)(=O)c1ccc2nc(NC(=O)c3cc(-c4ccccc4)nn3-c3ccccc3)sc2c1,inactive,
CCOC1=C2CN(S(=O)(=O)c3ccc(C)cc3)[C@H](c3cccc4ccccc34)C[C@H]2C(C#N)(C#N)C(C#N)(C#N)C1,"inconclusive: 31.6 µM [activator, single point]",
COc1ccc2nc(N/C(N)=N/C(=S)Nc3cccc(C)c3)nc(C)c2c1,"inconclusive: 44.7 µM [activator, partial curve, poor fit]",
CN(CC(=O)Nc1ccccc1C(F)(F)F)C(=O)Cn1c(=O)oc2ccccc21,inactive,
CCOc1ccccc1N(C)S(=O)(=O)c1ccc2c(c1)CC(C)N2C(=O)C1CC1 (stereo not drawn),"inconclusive: 28.2 µM [activator, partial curve, poor fit]",
O=C(CSc1nnc(CNc2ccc(F)cc2)n1Cc1ccco1)N1CCOCC1,"inconclusive: 3.98 µM [activator, single point]",
Fc1ccc(Nc2nc(N3CCOCC3)nc(N3CCOCC3)n2)cc1,inactive,
Cc1ccc(NC(=O)CN(CCc2ccccc2)S(=O)(=O)c2ccccc2)c(C)c1,inactive,
COc1ccc(N(CC(=O)NCc2ccc(Cl)cc2)S(=O)(=O)c2c(C)nn(C)c2C)cc1,"inconclusive: 28.2 µM [activator, partial curve, poor fit]",
O=C(Nc1ccc(F)cc1)OCCN1CCCC12CCC(c1ccccc1)CC2 (stereo not drawn),"inconclusive: 22.4 µM [activator, partial curve, poor fit]",
CCOC(=O)Nc1cccc(NC(=O)c2cc(OC)cc(OC)c2)c1,inactive,
CCc1ccc2nc(N3CCN(C(=O)c4ccccc4)CC3)sc2c1,inactive,
Cc1ccc(C)c(N2CCN(C(=O)C3CCN(S(=O)(=O)c4ccc5[nH]c(=O)oc5c4)CC3)CC2)c1,"inconclusive: 50.1 µM [activator, single point]",
NNc1nc(Nc2ccccc2)nc(N2CCCCC2)n1,"inconclusive: 17.8 µM [activator, partial curve, poor fit]",
COc1ccc(OC)c(CNC(=O)c2ccc(Sc3ccc(Cl)cc3)c(NC(C)=O)c2)c1,"inconclusive: 39.8 µM [activator, single point]",
O=C(Nc1ccc(Cl)cc1)c1cc(S(=O)(=O)N2CCCCC2)ccc1N1CCOCC1,"inconclusive: 28.2 µM [activator, single point]",
CCCN1Cc2cccc(C(=O)Nc3ccc(CN4CCCC4)cc3)c2C1=O,"inconclusive: 0.891 µM [activator, full curve, poor fit]",
C=CCc1ccc(OCC(O)COc2ccc(CC=C)cc2OC)c(OC)c1,"inconclusive: 35.5 µM [activator, single point]",
O=C(NC1CCCC1)C(c1ccco1)N(C(=O)c1ccco1)c1ccccc1 (stereo not drawn),inactive,

SMILES,Potency,growth rescue (activation)
COC(=O)[C@@]12C[C@@H](CC(=O)NCc3cccc(C(F)(F)F)c3)C(=O)N(Cc3ccc4c(c3)OCO4)C1=CCC(C)(C)C2,"inconclusive: 14.1 µM [activator, partial curve]",
COc1ccc(CC(=O)N2CCN(c3cccc(C)c3C)CC2)cc1,inactive,
O=C(COC(=O)c1ccccc1Br)Nc1cc(S(=O)(=O)N2CCOCC2)ccc1N1CCCC1,"inconclusive: 20 µM [activator, partial curve, poor fit]",
CCOc1ccc(NC(=O)CC2C(=O)N(c3ccc(F)cc3)C(=O)N2CCc2sccc2C)cc1 (stereo not drawn),inactive,
CC1CCCN(S(=O)(=O)c2ccc(NC(=O)Cn3nnc(-c4ccccc4F)n3)cc2)C1 (stereo not drawn),"inconclusive: 50.1 µM [activator, single point]",
Cc1ncoc1C(=O)N1CCCC(C(=O)c2ccc(-c3ccccc3)c(F)c2)C1 (stereo not drawn),"inconclusive: 25.1 µM [activator, partial curve, poor fit]",
c1ccc(C(Cc2nc(-c3cccnc3)no2)c2ccccc2)cc1,,inconclusive: 71.1% [activator]
CCN(CC)CCCNC(=O)CSc1nc2nc(C)c(Cc3ccccc3C)c(C)n2n1,inactive,
C[C@@H]1CN([C@H](C)CO)S(=O)(=O)c2ccc(Br)cc2O[C@@H]1CN(C)C(=O)Nc1ccc(C(F)(F)F)cc1,"inconclusive: 50.1 µM [activator, single point]",
COc1ccc(OC)c(NC(=O)c2c(NCc3ccc(C)o3)sc3c2CCC(C)C3)c1 (stereo not drawn),"inconclusive: 35.5 µM [activator, single point]",
CCOC(=O)[C@]12CCC=C1N(Cc1cccc3ccccc13)C(=O)[C@H](CC(=O)N1CCN(C(=O)c3ccco3)CC1)C2,"inconclusive: 39.8 µM [activator, partial curve, poor fit]",
c1ccc(-c2cccc(CNc3nc(-c4ccccn4)nnc3-c3ccccc3)c2)cc1,active: 31.6 µM,
CCn1c(SCC(=O)Nc2ccc3c(c2)oc2ccccc23)nnc1-c1ccc(N)cc1,"inconclusive: 31.6 µM [activator, partial curve, poor fit]",
CCCc1cc(Nc2ccccc2OCC)n2ncnc2n1,,inconclusive: 51.7% [activator]
Nc1c(C(=O)Nc2ccccc2)sc2nc3c(c(-c4ccco4)c12)CCC3,"inconclusive: 31.6 µM [activator, partial curve, poor fit]",
COc1ccc(NC(=O)CCCn2c(=O)[nH]c3ccccc3c2=O)cc1,inactive,
COC(=O)[C@]12CCCCC=C1N(Cc1ccc(OC)cc1)C(=O)[C@@H]2CC(=O)N1CCCCC1,inactive,
COc1cc(/C=C2\SC(c3ccc(C)cc3)=NC2=O)ccc1O,"inconclusive: 25.1 µM [activator, single point]",
Cc1ccc(S(=O)(=O)N2CCCCC2)cc1C(=O)Nc1cccnc1,"inconclusive: 44.7 µM [activator, single point]",
Fc1ccc(-c2nnc(NC3=NCCCCC3)o2)cc1,"inconclusive: 31.6 µM [activator, partial curve, poor fit]",
CCCCCCNC(=O)c1cn(CC)c2cc(N3CCN(C)CC3)c(F)cc2c1=O,"inconclusive: 22.4 µM [activator, single point]",
